The source of these data is the supplement of paper PMC11417369.

The list shows a part of the results.

For this test, the system named is PfHDP1 homeodomain (GST-tagged). Kind of test: gcPBM binding intensity (ln(normalized median fluorescence intensity)); higher = stronger DNA binding. The procedure, abridged: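 Binding intensity is the highest Masliner-normalised natural-log median intensity over replicate spots in either probe orientation. To obtain it, GST-tagged P. falciparum DNA-binding domains made in E. coli were incubated for 1 h on an Agilent 4 × 180k array of primer-extended double-stranded 36-bp intergenic genomic probes plus negative controls. Detection used Alexa488 anti-GST antibody with scanning at 488 nm.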
“GAGAGTACCTATATTGCATGCAGACTTTTTAAATAT [TGCATGCA_site564]”: the “gcPBM binding intensity (ln)” value came to 6.92. As to “TAAAATAAAAATTTATGTACACATAAAAAAACAAAA [XGTACX_site1112]”, the “gcPBM binding intensity (ln)” value worked out at 6.67.

In the case of “GTTAAAATAATATGGTGTACAAATATATAAGTTCAT [XGTACX_site3262]”, the “gcPBM binding intensity (ln)” value turned out to be 6.67. On to “TTAATAAGAGAGCAATAGGTGGACTGTTTCTTTTAT [CACACA_negctrl_site1239]”, for which the “gcPBM binding intensity (ln)” value was determined as 6.47. Take “TTTTTTTTTTTTTGTAGTACATTATGTATATTTTTA [XGTACX_site7810]”: the “gcPBM binding intensity (ln)” value was determined as 6.33.

Consider “GTAATATATATTAAGTAATAGTTTATCTTAGGAAAA [TGCATGCA_negctrl_site302]”, for which the “gcPBM binding intensity (ln)” value came to 5.89.

Consider “AATTTCTTCTTAGGGTGTACAATTTGACATAAGGAA [XGTACX_site1773]”, for which the “gcPBM binding intensity (ln)” value amounted to 6.77. In the case of “ATCTTATATCGTAGAGATTTTTTTTTTTTTTCATTT [XGTACX_negctrl_site140]”, the “gcPBM binding intensity (ln)” value worked out at 5.98. The value for “GTGCCCTTTTTAATAACATGCAAATAACATATTTAT [TGCATGCA_site709]” was 6.94; that for “AAAAAAAAAAAAAACACACAAACATCAAATTATTAT [CACACA_site1838]” was 6.34. For the sequence “AATTAGATGGATAAATGTACATATGTGAATATATTT [XGTACX_site85]”, the “gcPBM binding intensity (ln)” value stood at 6.77.

“ATATAACACAAGGGCACACATATACCTTTCCTTTTT [CACACA_site412]”: the “gcPBM binding intensity (ln)” value stood at 6.94. Consider “TTTATATTATACGCACTAATATATATATATATATAT [TGCATGCA_negctrl_site47]”, for which the “gcPBM binding intensity (ln)” value stood at 9.25.

Take “TAATATTTTTTGTGTACACATATATATATATATATA [CACACA_site5504]”: the “gcPBM binding intensity (ln)” value was determined as 9.37. Take “AATTTACATATATATTGTACATTTATGTATATATAT [XGTACX_site4186]”: the “gcPBM binding intensity (ln)” value worked out at 6.77. For “TACTTATATTGAAATGGTACAGATAAAAAAAAAAAA [XGTACX_site1407]”, the “gcPBM binding intensity (ln)” value was determined as 6.43.

With “TTTTGTAATGTGAATATTTGTATATTATTTGTATAT [CACACA_negctrl_site1677]”, the “gcPBM binding intensity (ln)” value was 6.36. In the case of “ACATTCTATCTAAGTACACACATTAATTTTTTTTTT [CACACA_site4106]”, the “gcPBM binding intensity (ln)” value was 6.85. For the sequence “ATATTACAGTACAATACATGCATATGGAAAAAAAAA [TGCATGCA_site72]”, the “gcPBM binding intensity (ln)” value turned out to be 6.59. “GATATAGGGCGTATGTTAATCGTGAAAGAGTGTCTT [GTGCAC_negctrl_site102]”: the “gcPBM binding intensity (ln)” value was found to be 6.81. For the sequence “TTCAAATGATTTATGTGTACATAAAATTATTTTTTA [XGTACX_site107]”, the “gcPBM binding intensity (ln)” value came out at 6.01.

With “ATAAAGAATATAAATACACACTTAAATATAGATTAT [CACACA_site7804]”, the “gcPBM binding intensity (ln)” value amounted to 6.46. Regarding “ATTGGTTCCCCTCTCTTTTCAATATATTTTTTTTTT [XGTACX_negctrl_site259]”, the “gcPBM binding intensity (ln)” value was determined as 6.17. Turning to “TAATGAAGCTTATGCACACGTTCATTATTTATATTA [CACACA_site3219]”, the “gcPBM binding intensity (ln)” value was 10.4. With “AAAAAATTAAAAATCACACATAAATATATATAAAAA [CACACA_site4192]”, the “gcPBM binding intensity (ln)” value came out at 6.46. As for “GCCTTTTAGTATTTCACACACGTAAATGAGTATATC [CACACA_site4748]”, the “gcPBM binding intensity (ln)” value came out at 6.93. Take “CTTCTTGTAAAATTTGCATGTAATTAAAAGAGAATG [TGCATGCA_site484]”: the “gcPBM binding intensity (ln)” value stood at 6.69. “TTCCCTATCTTTTCAGTGCATTTTGTTTCCTACCTT [GTGCAC_site9813]”: the “gcPBM binding intensity (ln)” value stood at 9.2.

As for “TGTAGAACTCAATATTGTACATTATATAAAATGGGA [XGTACX_site3857]”, the “gcPBM binding intensity (ln)” value was 6.85. On to “ATAAAATTTATGACTTGTACATGTAAATAAAATATA [XGTACX_site762]”, for which the “gcPBM binding intensity (ln)” value was 6.7. The value for “TTTAAATATATATATTGTACAAAAAAAAATAATAAA [XGTACX_site4759]” was 6.73; that for “TTTTTTTGCATTTCATGTACATATATTGAGCTTAAA [XGTACX_site8485]” was 7.73.

Take “ATATATATATATTGTACACACATTTATGCATATATA [CACACA_site5738]”: the “gcPBM binding intensity (ln)” value was determined as 8.81. Take “AAGTTATATTTGTGTACACATAATTTTATACTAATA [CACACA_site5553]”: the “gcPBM binding intensity (ln)” value is 7.12. As for “AATATTAAACAAAATAAATATATAAAAAATAAATAA [GTGCAC_negctrl_site93]”, the figure is 6.35; as for “TATTTAATACGGACTCATAAATCTTAATAAAAAAAA [CACACA_negctrl_site434]”, 6.1. In the case of “TTTAAGCAAAAACACACACACATATATATATATATA [CACACA_site349]”, the “gcPBM binding intensity (ln)” value is 9.16. On to “AAAAAATGATAATATACACACTTATGGGAGAGCGCA [CACACA_site5398]”, for which the “gcPBM binding intensity (ln)” value came out at 6.47.

“TATAAATATATATACACACACATATATATTATATAT [CACACA_site596]”: the “gcPBM binding intensity (ln)” value worked out at 6.74. Consider “ATTATGTTTCTTTTTTTTTTTAAAGGATGTCTTTTT [CACACA_negctrl_site974]”, for which the “gcPBM binding intensity (ln)” value amounted to 6.54.

“TATAAAAAAAACGAAAAAAAAAAAAAAAATACAGGA [TGCATGCA_negctrl_site585]”: the “gcPBM binding intensity (ln)” value was determined as 6.47. As for “ATATATTTTTAAAAAAATTAAGAATTTTACATCTCC [CACACA_negctrl_site1450]”, the figure is 6.01; as for “AAAAAAAAAAGACATGCATACGCTAATTTTTAGTTG [TGCATGCA_site300]”, 5.98.
